Results as given in patent US20250179210A1, “ANTI-CEACAM5 ANTIBODIES AND CONJUGATES AND USES THEREOF” (Merck Patent GmbH, priority 2022, published 2025).

B1: mAb1: anti-CEACAM5 antibody; two heavy chains SEQ ID NO: 13 and two light chains SEQ ID NO: 14 (antibody)
heavy: EVQLQESGPGLVKPSQTLSLTCTVSDGSVSRGGYYLTWIRQHPGKGLEWIGYIYYSGSTYFNPSLRSRVTMSVDTSKNQFSLKLSSVTAADTAVYYCARGIAVAPFDYWGQGTLVTVSSASTKGPSVFPLAPSSKSTSGGTAALGCLVKDYFPEPVTVSWNSGALTSGVHTFPAVLQSSGLYSLSSVVTVPSSSLGTQTYICNVNHKPSNTKVDKRVEPKSCDKTHTCPPCPAPPVAGPSVFLFPPKPKDTLMISRTPEVTCVVVDVSHEDPEVKFNWYVDGVEVHNAKTKPREEQYNSTYRVVSVLTVLHQDWLNGKEYKCKVSNKALPSSIEKTISKAKGQPREPQVYTLPPSREEMTKNQVSLTCLVKGFYPSDIAVEWESNGQPENNYKTTPPVLDSDGSFFLYSKLTVDKSRWQQGNVFSCSVMHEALHNHYTQKSLSLSPG
light: EIVLTQSPATLSVSPGERATLSCRTSQSVRSNLAWYQQKPGQAPRLLIYAASTRATGIPARFSGSGSGTEFTLTISSLQSEDFAVYYCQQYTNWPFTFGPGTKVDIKRTVAAPSVFIFPPSDEQLKSGTASVVCLLNNFYPREAKVQWKVDNALQSGNSQESVTEQDSKDSTYSLSSTLTLSKADYEKHKVYACEVTHQGLSSPVTKSFNRGEC
B2: ADC1 (conjugate)
heavy: B1 heavy
light: B1 light

Columns and labels:
[1] = target: T1, rhA3-B3 (Homo sapiens, UniProt P06731); assay: Selectivity ELISA, species and domains; type: binding
T1 construct: A3; 499-593; B3; 594-685; purchased Syngene
T1 sequence (P06731 499-685): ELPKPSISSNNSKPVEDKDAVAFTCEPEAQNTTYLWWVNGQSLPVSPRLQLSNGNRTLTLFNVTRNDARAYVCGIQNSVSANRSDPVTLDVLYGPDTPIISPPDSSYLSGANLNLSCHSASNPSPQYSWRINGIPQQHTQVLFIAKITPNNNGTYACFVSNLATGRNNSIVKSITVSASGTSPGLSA
Description: (§1) Selectivity determination for mAb1 was done by titrating the antibody from 4 nM to 0.25 μM and applying it on 1 μg/ml bound recombinant human (rh) CEACAM5 ECD or its domains N-A1-B1, A2-B2, A3-B3 or bound recombinant Macaca fascicularis (mf) CEACAM5 ECD, all obtained from Syngene, in an ELISA assay.

[2] = target: T2, rhN-A1-B1 (Homo sapiens, UniProt P06731); assay: Selectivity ELISA, species and domains; type: binding
T2 construct: 35-142; A1; 143-237; B1; 238-320; purchased Syngene
T2 sequence (P06731 35-320): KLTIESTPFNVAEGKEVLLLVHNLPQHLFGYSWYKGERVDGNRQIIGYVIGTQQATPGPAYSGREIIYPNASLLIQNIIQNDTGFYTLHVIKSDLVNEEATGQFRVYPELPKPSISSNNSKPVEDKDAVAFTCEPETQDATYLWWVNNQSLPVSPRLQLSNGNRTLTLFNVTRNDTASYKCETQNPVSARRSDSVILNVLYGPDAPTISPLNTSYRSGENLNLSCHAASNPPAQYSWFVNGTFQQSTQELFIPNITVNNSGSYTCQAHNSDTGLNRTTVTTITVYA
Description: as §1

[3] = system: MKN45 cells; assay: Internalization assay using Cell Discoverer (pHrodo labeled antibodies); type: cell-based, human
From the text: A relevant characteristic of an ADC is its internalization into a target-expressing cell and lysosomes, and thus internalization is a relevant property of antibodies to be used as part of ADCs. Antibody internalization rate into the late endosome and lysosome (low pH vesicles) can be monitored by directly labeling the antibodies with a pH-sensitive dye (pHrodo) which emits strong fluorescence at a pH lower than 6.0 upon excitation. This fluorescence can be imaged in the Cell-Discoverer7 (Zeiss) and internalization rate can be calculated.
To analyze the internalization rates of several antibodies, MKN45 cells were seeded in a 96 well, dark, flat clear bottom plate (Cellvis) at 25,000 cells/well. Cells were cultivated over night with 100 μl/well of RMPI-1640+10% FBS (Thermo). Cell media was removed, and cells were stained with 100 μl of 10 μg/ml Hoechst dye diluted in PBS×1 for 15 min at room temperature (RT) in the dark. Cells were then washed twice with PBS×1.
Plate was incubated in the Cell Discoverer at 37° C., 5% CO2, for 20 hours, and images were acquired every 20 minutes, as further described below.
Internalization of pHrodo labeled antibodies into the late endosomes and lysosomes of cells was imaged by Cell-Discoverer7 (Zeiss) using fluorescence at excitation of 567 nm and emission detector of 592/25 nm. Cell nuclei were labeled with Hoechst and imaged at excitation of 385 nm and emission detector of 425/30 nm.
Fluorescence of each well was recorded every 20 min for 20 h. Analysis of Sum Fluorescence Intensity per cell (SFI) was calculated by the Zen Software (ZEN3.1) and Excel analysis of linear regression.

[4] = system: NCI-H441; assay: Flow cytometry binding to cell lines; design: species or system human; conditions: 10 μg/mL primary antibody
Description: (§2) Method used: 5E5 to 1E6 cells were used for flow cytometry analyses using a BD FACSCanto II (BD Biosciences) in 5 mL polystyrene tubes. Staining with 10 μg/mL primary antibodies (mAb1, rb8G4, mouse monoclonal Agilent Dako #M7072 clone #IL7) and respective fluorescently labeled secondary antibodies (donkey anti-human IgG Jackson-Dianova #709-116-149; donkey anti-mouse IgG Jackson ImmunoResearch #715-116-150, donkey anti-rabbit IgG Jackson-Dianova #711-116-152) were conducted in 50 μL 1% PBS/BSA for 20 to 30 min at 4° C. Between and after staining steps, cells were washed thrice with 1% PBS/BSA and resuspended in 500 μL 1% PBS/BSA (including 0.2 μg/mL DAPI for live cell gating) for flow cytometry analyses. For data evaluation, FlowJo software (BD Biosciences) was used.

[5] = system: MDA-MB-468; assay: Flow cytometry binding to cell lines; design: species or system human; conditions: 10 μg/mL primary antibody
Description: as §2

[6] = system: MKN-45; assay: Flow cytometry binding to cell lines; design: species or system human; conditions: 10 μg/mL primary antibody
Description: as §2

[7] = system: A549; assay: Flow cytometry binding to cell lines; design: species or system human; conditions: 10 μg/mL primary antibody
Description: as §2

[8] = system: MKN-45; assay: Viability assay (Cell Titer-Glo); type: cell-based, human; conditions: Table 2; at the highest tested compound concentration
[9] = Payload liberation in human liver lysosomes; type: in vitro ADME
Description: pH was adjusted either to pH 5.0 or pH 4.0 using assay buffer. […] Preparation of MeOH+PIC (1:200): 10 μL PIC III+1990 μL MeOH. The reactions were started upon transferring the Eppendorf tubes to a Thermomix that was preheated to 37° C. Subsequently, 10 μL aliquots were drawn after 0, 1, 2, 4, 24 and 48 hours and mixed with 40 μL PIC III (1:200).

[10] = 30-min i.v. infusion on day 1, 22 and 43 at 3, 10, and 30 mg/kg

Row | Molecule | Binding to rhA3-B3 [1] | Binding to rhN-A1-B1 [2] | average binding rate ([3]; average of the three slopes of the linear part of the curve) | internalization intensity ([3]; compared to humab2-3 and hmn-14) | Slope of Curve ([3]; linear part (700 to 1200 minutes) of fluorescence intensity per cell, 100 nM pHrodo labeled antibody, single wells, listed as so8G4) | Quotient of MFI of antibody divided by MFI of secondary antibody only control [4] | Quotient of MFI of antibody divided by MFI of secondary antibody only control [5] | Quotient of MFI of antibody divided by MFI of secondary antibody only control [6] | Quotient of MFI of antibody divided by MFI of secondary antibody only control [7] | MKN-45 maximal effect compared to untreated controls [8] | payload release, of initial total conj. payload ([9]; human liver lysosomes, pH 5.0) [%] | ADC catabolite profiling, lysosomal release product ([9]; human lysosomal extracts, 0 h, 4 h, 24 h) | safety profile [10]
1 | B1 | No binding | No binding | 28958±766 | higher internalization intensity | 28519 and 29844 and 28513 | 2.2 | 1.1 | 23.2 | 1.1 | – | – | – | –
2 | B2 | – | – | – | – | – | – | – | – | – | (−78%) | ~40 | expected exatecan catabolite was subsequently released | comparatively favorable safety profile

Where “and” joins values, the source holds several entries; their conditions need not be identical. Equal entries are not always repeated.
